To fix the notation:
B1: chr4:173322470:173322571:+|3pUTR|ENSG00000109586|msi1|FALSE|bound_elsewhere (ssRNA)
RNA: GGGAGUUCUACAGUCCGACGAUCUGUAGCAUUCACUCCCUUACCUACUGGCAUUCCCAGUGCCCUCUGUCCAUACCUACUUCUAGGAUUGCAAAGGAGUCUUCCAACUAGAGAAAAAUUGUCCACUGACAUUUGGGAUUUACUCAACAGAGGAUUGAGCAUCA
B2: chr12:71585298:71585408:+|3pUTR|ENSG00000139292|unk|FALSE|unique (ssRNA)
RNA: GGGAGUUCUACAGUCCGACGAUCUUGUUAACUCACUCAUAUUGAGAUCAUUUUUAGAGAUACCAGGUUUUAUGUAUCAGCACUAGAUGGUUCCACCCUCAUGGGAUAAAACUGCUUACAAGUAUUUUGAAAGAAAAACUGACCCAACAGAGGAUUGAGCAUCA
B3: chr7:56063203:56063317:+|3pUTR|ENSG00000146731|unk|total|mutant (ssRNA)
RNA: GGGAGUUCUACAGUCCGACGAUCCCCAUAUGAAAAAAGGAGAGAACACUGGCAUCUGUUGAAAUUUGGAAGUUCUGAAAUUACCGUAUUUUUAAAAAUUGCACUGAAGUGUAUACACAUAAAGCAGGUCUUUUAUCCAGUGAACAACAGAGGAUUGAGCAUCA
B4: ENSG00000198589:be:win_6501|CDS|ENSG00000198589|bound_else_gene|NA|bound_elsewhere_windowed (ssRNA)
RNA: GGGAGUUCUACAGUCCGACGAUCCUAUCUACCUCGUGUUGGCGUUGGAACAAGUUUUGGAUUGCCUCAAACCAGACGUAUUUCAUUAGCUAGUCCACGUCAGCUUUUUAAGGCUUCUAAUAUGACCCAGCGAUGGCAACACAGCAACAGAGGAUUGAGCAUCA
B5: chr1:169124931:169125019:+|5pUTR_CDS|ENSG00000143153|msi1_unk|total|mutant (ssRNA)
RNA: GGGAGUUCUACAGUCCGACGAUCGAAAUUUCCUUUCGUCCUAAUGAUCCCAAGAGCUAUGAGGCAUAUGUACUGAACACCGUCCGGUUCCUGGAAAAGUACAAAGAUUCAGCCCAGAGGGAUGACAUGAUUUUUGAAGAUUGUCAACAGAGGAUUGAGCAUCA
B6: ENSG00000146918:stop:overlap|stop_codon|ENSG00000146918|stop_codon|NA|stop_codon (ssRNA)
RNA: GGGAGUUCUACAGUCCGACGAUCGGGCUCUAACUCCUGGACUCCUGGACUCAAUCUAUCCUUCUGCCUCAGUCCCAAUUGGCUAGGACUGCAGGCACACACCACCAGACCCAGCUAAUGUAAUUUCUAUCUAUAUGUGUCUUUCAACAGAGGAUUGAGCAUCA
B7: chr11:59152587:59152688:+|CDS|ENSG00000166801|msi1|total|mutant (ssRNA)
RNA: GGGAGUUCUACAGUCCGACGAUCAUUGAAAACUUCAAGAAAAAAAUGAAAGUAAAAAAUGGGGAAACAUUAUUUGAAUUGCACCGAACAACGUUUGGGAAAGUAACAAAAAAUUCUUCUUCGAUUAAAGCCGUGAAACUUCUUCAACAGAGGAUUGAGCAUCA
B8: ENSG00000198589:be:win_2801|CDS|ENSG00000198589|bound_else_gene|NA|bound_elsewhere_windowed (ssRNA)
RNA: GGGAGUUCUACAGUCCGACGAUCAUAUAUUUAGGGAACAGCAAGGAAAAGUUGAUGAAGAAAUAGGGCUGUGUUCUUCAACUUCAGUUCAAGCAGCCUCUGGCAUUAGAAGGGAUAUUAAUGUUUCAGUAGGAUCCCAGCAACCAACAGAGGAUUGAGCAUCA
B9: chr1:86745841:86745942:+|3pUTR|ENSG00000097033|msi1|FALSE|bound_elsewhere (ssRNA)
RNA: GGGAGUUCUACAGUCCGACGAUCAUGGUGCAGUUCAGAAUUGUUUAAAUAAGCUCUGUGCCACUGAGCUUAAUCUGAAAGUAUAGUGACAUGUGAAGGAUGCACAUAUGAAUGAAAAACUAAAAUAAUUGUAGGCUCUUCUAUCAACAGAGGAUUGAGCAUCA
B10: chr4:124666837:124666938:-|3pUTR|ENSG00000151458|msi1|total|mutant (ssRNA)
RNA: GGGAGUUCUACAGUCCGACGAUCAAUGAUUUCUUGGCAGUUUAAAAAAAAUAUUUUACCGCCGUUCCGGGAGCUGCUUUAAGCCGUUUAAAUCUGGAUUUUCCCAGCCGAAUUCUUCUCAUCUCUGGCUAAACAUGUCAGAACCAACAGAGGAUUGAGCAUCA
B11: chr12:26337790:26337891:-|3pUTR|ENSG00000123104|unk|FALSE|unique (ssRNA)
RNA: GGGAGUUCUACAGUCCGACGAUCAAGAUCUAUGUAGAAUAUAAAGGAAGCCUGAACCAAUCCUUCCACAUACUGUUAAGAUGUAGACUUGGAACAAAGCUGUUGGGACCCAGAGCAAUGAAUUUUUGAACUGAAGCUACUGGUCAACAGAGGAUUGAGCAUCA
B12: chr5:40945159:40945374:+|CDS|ENSG00000112936|unk|FALSE|unique (ssRNA)
RNA: GGGAGUUCUACAGUCCGACGAUCGAAUUUUACAAUAGUACUUGGUCUUAUGUAAAACAUACGUCGACAGAACACACAUCAUCUAGUCGGAAGCGCUCCUUUUUUAGAUCUUCAUCAUCUUCUUCACGCAGUUAUACUUCACAUCAACAGAGGAUUGAGCAUCA
B13: chrX:150470157:150470258:+|CDS|ENSG00000013619|unk|total|mutant (ssRNA)
RNA: GGGAGUUCUACAGUCCGACGAUCUCCAAAUGAGCCCGAUCUUGAGAAGAUACUGGGGACGAAGCCAGAAGAGCCACUGGUUUCCGAUCAUCCCCAGGCAACCCUAAGCACAACUCCCAAGCCUUCGGUUCAGAUGUCACACUUCAACAGAGGAUUGAGCAUCA
B14: ENSG00000144749:stop:overlap|stop_codon|ENSG00000144749|stop_codon|NA|stop_codon (ssRNA)
RNA: GGGAGUUCUACAGUCCGACGAUCCACUGACAGGACAGCUCCCCGGGAAACAGAGGGUGCCACUGCUGUUGGCACCAAAAAGCUAGGUUUUGUCUACCUCAGUUCUUGUCAUACCAAUCUCUACGGGAAAGAGAGGUAGGAGAGCAACAGAGGAUUGAGCAUCA
B15: chr12:108783210:108783311:-|3pUTR|ENSG00000084112|msi1|FALSE|unique (ssRNA)
RNA: GGGAGUUCUACAGUCCGACGAUCUGUUUAUCCUGCUAUGCAGUUUUACAUUGUGUGUUCACAUCUAUUCCAAGGAGCCUUGCUAGAAACAACACUGGCGGUUCCUGCAGGCCAGGCAGGCAUUGGCCCAUGCUGUGUCCCAUACAACAGAGGAUUGAGCAUCA
B16: chr3:142163631:142163732:-|3pUTR|ENSG00000175066|unk|FALSE|unique (ssRNA)
RNA: GGGAGUUCUACAGUCCGACGAUCCCCAAAGUGCUGGGAUUGCAGCCGUGAACCACUGCACCCAGCCAAUGGGUGUAAUUUCAUAGGAAAUAAUUCUUUUUGUCAGAAUGUACUGAAUUGUAAUAUUAAUACCUGAAAAUUUGUCAACAGAGGAUUGAGCAUCA
B17: chr14:100883974:100884119:-|CDS|ENSG00000254656|unk|total|mutant (ssRNA)
RNA: GGGAGUUCUACAGUCCGACGAUCGUUCUAUAACGACCGUCUGAGAGUUGGCUAUGUCAUCAAUCACCUGUCCGGCUUGGCAUCCGAAUGGGCCAAAGCUCUACUGCAGGAAAACAGCCCCCUGAUCGGAGACUUCCCAGCCUUCAACAGAGGAUUGAGCAUCA
B18: chr15:31475397:31483293:-|three_prime_utr|ENSG00000169918|control|control|control (ssRNA)
RNA: GGGAGUUCUACAGUCCGACGAUCUGUACGUGUUUGGUCAAACGUUCCUAAUGGUGCCUGAACCUACACUGACGCCACUCAGGUAGUAGACGGAUAGGAAACAAGUCAUACUGUUGGAAGUGGGUGUGCUAGCCUAGCAUCUGCCAACAGAGGAUUGAGCAUCA
B19: chr18:58535911:58536012:-|CDS|ENSG00000198796|msi1|FALSE|unique (ssRNA)
RNA: GGGAGUUCUACAGUCCGACGAUCUCUGACCUGCCCUAAAAUCCUAGAGUCCUCUGUAGAUCCCAUUGAUGAGAUAAGUGUGAUAGAGUACACCAGGGCUGGAAAACCAGAGCCCUCUGAAACCACACCACAGGGCGCCAGAGACAACAGAGGAUUGAGCAUCA
B20: chr13:37103258:37104242:-|three_prime_utr|ENSG00000180138|control|control|control (ssRNA)
RNA: GGGAGUUCUACAGUCCGACGAUCAAUGAGGAACAGAAGAAGCAGAGCAGAUGAUUCGAGCAGCAUUUGUUUCUCCCCACAUCUAGAAAUUGUAGUUCAUAUGUACACCAGCUAGUGGCUGUGAACAACCAUUUAGUUGGUGUACAACAGAGGAUUGAGCAUCA
B21: chr17:79089344:79090882:-|three_prime_utr|ENSG00000167281|control|control|control (ssRNA)
RNA: GGGAGUUCUACAGUCCGACGAUCAGACAGUGUGGAGCCCAGCGGCGGCGGAGCAGGCCCGGGCCUGAGCAGGCAGGCGCUGCUAGCAAGACUUGAUCUUUGUGGCCAGCUGUGCCAGGGGGCCGGCGGGGCUGAGGGGUGCGGCAACAGAGGAUUGAGCAUCA
B22: chr19:58354356:58356138:-|three_prime_utr|ENSG00000174586|control|control|control (ssRNA)
RNA: GGGAGUUCUACAGUCCGACGAUCUGGGAGUGCAGGGGCGGCCUUGGGUGUGGAGAACCCUGGCUGCACAGUCCCUUUGACGAUAGUCCACCGGCCACCCAGGCCUGUCUGGGGACAUGUAGGAUGGGCUCUUACCCCAGGGAGCAACAGAGGAUUGAGCAUCA

The other results are listed elsewhere or left out.

This test has as its target MSI1 full-length (mouse, UniProt Q61474 1-362). As to the kind of experiment: nsRBNS (natural sequence RNA bind-n-seq); RBNS binding buffer (assumed for nsRBNS): 25 mM Tris pH 7.5, 150 mM KCl, 3 mM MgCl2, 0.01% Triton X-100, 500 ug/ml BSA, 20 U/ml SUPERase-In, 4 C; UNK is unkempt and MSI1 is Musashi-1; names of the RNAs are library labels; protein concentration not given here; high values mean tight binding.
Sequence of UniProt Q61474 (Q61474 whole entry): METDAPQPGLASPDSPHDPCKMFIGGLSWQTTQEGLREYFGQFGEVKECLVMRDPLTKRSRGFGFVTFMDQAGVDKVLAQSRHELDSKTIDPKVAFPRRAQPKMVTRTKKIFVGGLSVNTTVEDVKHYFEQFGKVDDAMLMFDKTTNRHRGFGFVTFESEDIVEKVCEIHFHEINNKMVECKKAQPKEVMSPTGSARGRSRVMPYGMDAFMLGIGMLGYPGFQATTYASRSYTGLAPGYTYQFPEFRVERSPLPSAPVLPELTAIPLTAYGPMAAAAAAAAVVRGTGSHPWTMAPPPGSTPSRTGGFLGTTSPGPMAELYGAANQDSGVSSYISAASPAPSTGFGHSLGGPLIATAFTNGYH
Regarding B1, the binding signal was determined as 0.538 enrichment R. B2 showed a binding signal of 1.05 enrichment R. B3 had a binding signal of 0.545 enrichment R. To B4 belongs 2.29 enrichment R; to B5, 0.314 enrichment R. Regarding B6, the binding signal was 0.472 enrichment R.

Consider B7, for which the binding signal came out at 0.281 enrichment R. The molecule B8 showed a binding signal of 4.23 enrichment R. On to B9, for which the binding signal was determined as 0.799 enrichment R. With B10, the binding signal is 0.225 enrichment R. In turn, B11 displayed a binding signal of 0.55 enrichment R. The figure for B12 is 2.79 enrichment R; for B13 it is 0.357 enrichment R; for B14 it is 0.64 enrichment R. To B15 belongs 0.613 enrichment R; to B16, 2.06 enrichment R; to B17, 0.31 enrichment R. For the molecule B18, the binding signal was 0.364 enrichment R.

B19: the binding signal came to 1.02 enrichment R. For B20, the binding signal is 0.624 enrichment R. To B21 belongs 0.344 enrichment R; to B22, 0.543 enrichment R.

The values are drawn from publication PMC12136788.
